According to PubChem BioAssay AID1030 (National Center for Advancing Translational Sciences (NCATS), 2008):
Screen size: about 220,000 compounds; about 16,000 (7.3%) were called active. Inconclusive results, whose numbers are uncertain, are shown with a selection of clear calls. Calls come from the whole dose curve; as a rule, active = well fitted inhibition curve with a large enough effect (not every such curve was filed as active); inconclusive = small, poorly fitted or top-dose-only effect, or another doubt; inactive = no such curve, though single readings can be large or run the other way. No potency is given beside an inconclusive call; the fits are too rough.

The compounds below were run against Aldehyde dehydrogenase 1A1 (Homo sapiens) (UniProt P00352) (assay: qHTS Assay for Inhibitors of Aldehyde Dehydrogenase 1 (ALDH1A1)). Conditions: Purified ALDH1A1, NADH fluorescence, propionaldehyde substrate; series mostly up to 75.3 µM; activity, negative = inhibition: at the top concentration.
UniProt P00352, sequence (P00352 whole entry, looked up): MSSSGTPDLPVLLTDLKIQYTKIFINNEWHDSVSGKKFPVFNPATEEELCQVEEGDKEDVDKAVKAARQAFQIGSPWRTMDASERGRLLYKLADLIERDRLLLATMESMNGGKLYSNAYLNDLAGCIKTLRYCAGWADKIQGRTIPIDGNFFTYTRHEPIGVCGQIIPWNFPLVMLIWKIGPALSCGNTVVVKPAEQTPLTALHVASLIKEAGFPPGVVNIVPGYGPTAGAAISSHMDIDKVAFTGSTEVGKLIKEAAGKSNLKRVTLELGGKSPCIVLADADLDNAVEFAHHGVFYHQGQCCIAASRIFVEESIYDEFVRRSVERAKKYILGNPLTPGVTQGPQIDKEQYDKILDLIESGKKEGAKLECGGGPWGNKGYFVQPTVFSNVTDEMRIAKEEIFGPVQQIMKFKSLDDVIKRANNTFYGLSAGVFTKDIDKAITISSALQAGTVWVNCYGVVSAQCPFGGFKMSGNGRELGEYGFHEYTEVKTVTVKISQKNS
Potency is the fitted concentration of half-maximal effect; tags give direction and shape of the fitted curve.
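Throughout, for activity, negative = inhibition: plate controls were no enzyme wells and a reference inhibitor.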

Row | Compound | Potency | activity, negative = inhibition
1 | COc1ccc2cc(CCNC(=O)C3CC3)c(=O)[nH]c2c1 | inconclusive [inhibitor, single point] | –
2 | CCCOC(=O)c1ccc(NC(=O)c2cc(Cl)ccc2OC)cc1 | inconclusive [inhibitor, single point] | –
3 | CN(NC(=O)CN1C(=O)c2ccccc2C1=O)C1=NS(=O)(=O)c2ccccc21 | – | inactive: -0.202%
4 | CC(=O)n1cc([C@H]2C=C(C(=O)N3CCN(Cc4ccc5c(c4)OCO5)CC3)O[C@@H](OCCCCO)C2)c2ccccc21 | – | inactive: -5.88%
5 | COC(=O)c1c(NC(=O)COC(=O)[C@@H](NS(=O)(=O)c2ccccc2)C(C)C)sc2c1CCC2 | inconclusive [inhibitor, single point] | –
6 | COc1cccc([C@@H]2Oc3ccc(OC)cc3C[C@H]2O)c1 | – | inactive: 7.43%
7 | O=C(Cn1cnc2c(nnn2Cc2ccc(F)cc2)c1=O)NCc1ccco1 | – | inactive: 5.77%
8 | CS(=O)(=O)N1CCN(c2ccccc2NC(=O)c2ccco2)CC1 | inconclusive [inhibitor, partial curve] | –
9 | CCOC(=O)C1=C(C)N=C2SC(C)C(=O)N2C1c1ccc(OC(C)=O)c(OC)c1 (configuration not stated) | – | inactive: -2.33%
10 | CCn1c2ccccc2c2cc(NC(=O)CNC)ccc21 | active: 25.1 µM | –
11 | O=C(O)/C=C/C(=O)NCc1ccccn1 | inconclusive [inhibitor, single point] | –
12 | CCC1(CC)Cc2ccccc2-c2nc(NCCCO)[nH]c(=O)c21 | inconclusive [inhibitor, partial curve] | –
13 | COC(=O)C1=C(O)/C(=C\c2cc(C)n(-c3ccccc3F)c2C)N=C1C | active: 11.2 µM | –
14 | Cn1c(=O)n(C)c2cc(/C=N/NC(=O)c3ccncc3)ccc21 | inconclusive [inhibitor, single point] | –
15 | Cc1ccc2nc(-c3ccc(NC(=O)c4ccc(N)cc4)c(S(=O)(=O)O)c3)sc2c1 | inconclusive [inhibitor, partial curve] | –
16 | O=S(=O)(c1ccc(N2CC=C(c3ccccc3)CC2)nc1)N1CCCC1 | inconclusive [inhibitor, single point] | –
17 | Cc1c(NC(=O)c2cnn3c(C(F)(F)F)cc(-c4ccco4)nc23)c(=O)n(-c2ccccc2)n1C | inconclusive [inhibitor, single point] | –
18 | NCCS(=O)(=O)O | inactive | –
19 | Cc1cc(C)cc(C(=O)N2CCN(c3ccccn3)CC2)c1 | – | inactive: -7.63%
20 | O=C(NCCCN1CCOCC1)c1cc2ccccc2oc1=O | inconclusive [inhibitor, single point] | –
21 | C=CCNC(=S)N/N=C/c1ccc(-c2cc(Cl)ccc2Cl)o1 | inconclusive [inhibitor, single point] | –
22 | O=C(CCN1C(=O)C2C3C=CC(C3)C2C1=O)Nc1ccccc1 (configuration not stated) | – | inactive: -5.8%
23 | CC(C)(O)C#Cc1ccc(CN2CCCC(CO)(Cc3cccc(Cl)c3)C2)cc1 (configuration not stated) | – | inactive: 5.36%
24 | CN(C)Cc1ccccc1-c1cc(Nc2ccccc2)ncn1 | – | inactive: 2.28%

Row | Compound | Potency | activity, negative = inhibition
25 | COc1ccccc1/C=C/C(=O)OCCCN(C)C | inconclusive [inhibitor, single point] | –
26 | CC(=O)N1CCN(CC(=O)Nc2ccc(C)c(S(=O)(=O)N(C)C)c2)CC1 | inconclusive [inhibitor, single point] | –
27 | CN(c1ccc2nc3ccccc3c(=O)n2n1)C1CCCCC1 | inconclusive [inhibitor, single point] | –
28 | COCCn1c(SCc2nc3ccccc3c(=O)[nH]2)nnc1-c1ccncc1 | – | inactive: 1.9%
29 | COc1cc(NC(=O)CN2C(=O)NC(c3ccccc3)(c3ccccc3)C2=O)c(C)cc1[N+](=O)[O-] | inconclusive [inhibitor, single point] | –
30 | Cc1cc(C)c(S(=O)(=O)Nc2cccnc2)c(C)c1 | inconclusive [inhibitor, single point] | –
31 | O=C(CSc1nnc(NC2CCCCC2)s1)NN1C(=O)NC2(CCCCC2)C1=O | – | inactive: 7.28%
32 | Cc1ccccc1OCC(=O)NNC(=S)NC(=O)c1ccco1 | inconclusive [inhibitor, single point] | –
33 | COc1ccccc1NC(=S)N(Cc1cccnc1)Cc1ccccc1Cl | inconclusive [inhibitor, partial curve] | –
34 | CC(C)C[C@@H](CC(=O)N[C@@H](CCC(=O)O)CC(=O)O)NC(=O)[C@@H]1CCCC[C@H]1NC(=O)C[C@@H](NC(=O)C[C@H](Cc1c[nH]c2ccccc12)NC(=O)[C@@H]1CCCC[C@H]1N)C(C)C | inconclusive [inhibitor, single point] | –
35 | COc1cccc(OCCn2cc(/C=N/NC(=O)c3ccncc3)c3ccccc32)c1 | – | inactive: 3.69%
36 | Cn1c(=O)c2c(ncn2CC(=O)N2CCN(c3ccc(F)cc3)CC2)n(C)c1=O | – | inactive: 4.74%
37 | Cc1nc(Nc2c(Cl)cccc2Cl)sc1C(=O)Nc1ccccc1 | active: 14.1 µM | –
38 | O=S(=O)(c1ccc(F)cc1)n1ccc2cccnc21 | – | inactive: 12.2%
39 | Cc1cc(C)cc(NC(=O)Cn2c(SCc3cc(C)ccc3C)nc3ccncc32)c1 | – | inactive: 6.01%
40 | CCOC(=O)c1c(/N=C/N(C)C)sc(C(=O)OC)c1C | inconclusive [inhibitor, single point] | –
41 | Nc1nonc1NC(=O)CSc1nc2ccccc2s1 | inconclusive [inhibitor, single point] | –
42 | CC(C)(C)NC(=O)COC(=O)c1snc(C(=O)NC2CCCCC2)c1N | inconclusive [inhibitor, partial curve] | –
43 | COc1ccc2c3c(c(=O)oc2c1OCC(N)=O)CCCC3 | inconclusive [inhibitor, partial curve] | –
44 | CN1CCCC(CC2Oc3ccccc3Sc3ccccc32)C1 (configuration not stated) | inconclusive [inhibitor, single point] | –
45 | O=C(Cn1c(SCc2ccccc2)nc2ccccc21)N1CCOCC1 | – | inactive: 4.77%
46 | CC/C(=N/Nc1ccccc1Cl)c1cnnc(-c2ccccc2)n1 | – | inactive: 2.34%
47 | CCC(Sc1nc(N)c(NC(=O)c2ccc(OC)cc2)c(=O)[nH]1)C(=O)O (configuration not stated) | – | inactive: -3.87%
